Measured values reported in the supplement of paper PMC4967469.
By IC50 is meant the dose at which the fit gives 50% viability; a fit beyond the top or the lowest dose is shown as a bound at that dose. For AUC the same curve is integrated over the 256-fold range of doses and scaled to a fraction; the more sensitive the line, the further below 1. For some of these results: Where the top dose is marked as inferred, it is not printed in the source and was worked back from the curve model.

Legend:
Assay in all cases: Viability of human cancer cell lines after 72 h of drug (GDSC screen)
Temozolomide = compound: Cn1nnc2c(C(N)=O)ncn2c1=O [Temozolomide]; settings: top dose 30 µM
Procedure: (§1)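 Human cancer cell lines in 384-well plates, medium with 10% serum, drug for 72 h over a 256-fold dose range (nine 2-fold or five 4-fold steps up to the top dose). Adherent lines were fixed and stained with the nucleic acid dye Syto60, suspension lines read with resazurin; signal relative to control wells, capped at 0 and 100%. One two-parameter sigmoid per drug and line, fitted in a mixed model over all curves with the slope shared within a line.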

CI-1040 = compound: O=C(NOCC1CC1)c1ccc(F)c(F)c1Nc1ccc(I)cc1Cl [CI-1040]; settings: top dose 10 µM; top dose inferred
Procedure: as §1

JW-7-52-1 = compound: CCC(=O)N1CCN(c2ccc(-n3c(=O)ccc4cnc5ccc(-c6cnc7ccccc7c6)cc5c43)cc2C(F)(F)F)CC1 [JW-7-52-1]; settings: top dose 1.2 µM; top dose inferred
Procedure: as §1

Tubastatin A = compound: CN1CCc2c(c3ccccc3n2Cc2ccc(C(=O)NO)cc2)C1 [Tubastatin A]; settings: top dose 20 µM
Procedure: as §1

Rapamycin = compound: CO[C@H]1C[C@@H]2CC[C@@H](C)[C@@](O)(O2)C(=O)C(=O)N2CCCC[C@H]2C(=O)O[C@H]([C@H](C)C[C@@H]2CC[C@@H](O)[C@H](OC)C2)CC(=O)[C@H](C)/C=C(\C)[C@@H](O)[C@@H](OC)C(=O)[C@H](C)C[C@H](C)/C=C/C=C/C=C/1C [Rapamycin]; settings: top dose 0.1 µM; top dose inferred
Procedure: as §1

IPA-3 = compound: Oc1ccc2ccccc2c1SSc1c(O)ccc2ccccc12 [IPA-3]; settings: top dose 32 µM; top dose inferred
Procedure: as §1

Z-LLNle-CHO = compound: CCCC[C@@H](C=O)NC(=O)[C@H](CC(C)C)NC(=O)[C@H](CC(C)C)NC(=O)OCc1ccccc1 [Z-LLNle-CHO]; settings: top dose 2.56 µM; top dose inferred
Procedure: as §1

XL-880 = compound: COc1cc2c(Oc3ccc(NC(=O)C4(C(=O)Nc5ccc(F)cc5)CC4)cc3F)ccnc2cc1OCCCN1CCOCC1 [XL-880]; settings: top dose 5.12 µM; top dose inferred
Procedure: as §1

Cell Line	AUC (Temozolomide)	IC50 (Temozolomide)	AUC (CI-1040)	IC50 (CI-1040)	AUC (JW-7-52-1)	IC50 (JW-7-52-1)	AUC (Tubastatin A)	IC50 (Tubastatin A)	AUC (Rapamycin)	IC50 (Rapamycin)	AUC (IPA-3)	IC50 (IPA-3)	AUC (Z-LLNle-CHO)	IC50 (Z-LLNle-CHO)	AUC (XL-880)	IC50 (XL-880)
EW-3 (Ewing sarcoma, adherent)	0.95	> 30000 nM	0.942	> 10000 nM	0.611	158 nM	0.907	> 20000 nM	0.923	> 100 nM	0.875	> 32000 nM	0.872	> 2560 nM	0.686	1150 nM
CMK (acute myeloid leukaemia, suspension)	0.979	> 30000 nM	0.944	> 10000 nM	0.196	11.4 nM	0.788	7330 nM	0.824	47.8 nM	0.579	3170 nM	0.773	849 nM	0.686	967 nM
NCI-H1581 (large cell lung carcinoma, semi-adherent)	0.972	> 30000 nM	0.859	7270 nM	0.704	266 nM	0.933	> 20000 nM	0.906	> 100 nM	0.988	> 32000 nM	0.916	> 2560 nM	0.719	1260 nM
KARPAS-620 (haematopoietic neoplasm, suspension)	0.985	> 30000 nM	0.828	5010 nM	0.227	14 nM	0.796	7890 nM	0.154	0.675 nM	0.709	7040 nM	0.761	790 nM	0.622	657 nM
SK-N-FI (neuroblastoma, adherent)	0.979	> 30000 nM	0.845	7120 nM	0.868	1080 nM	0.986	> 20000 nM	0.963	> 100 nM	0.989	> 32000 nM	0.886	> 2560 nM	0.608	633 nM
COR-L88 (small cell lung carcinoma, adherent)	0.974	> 30000 nM	0.97	> 10000 nM	0.82	862 nM	0.911	> 20000 nM	0.985	> 100 nM	0.986	> 32000 nM	0.98	> 2560 nM	0.756	2050 nM
SW954 (urogenital system, adherent)	0.968	> 30000 nM	0.82	5850 nM	0.448	54.1 nM	0.908	> 20000 nM	0.913	> 100 nM	0.897	> 32000 nM	0.829	1610 nM	0.368	137 nM
KNS-81-FD (glioma, adherent)	0.962	> 30000 nM	0.887	> 10000 nM	0.569	124 nM	0.967	> 20000 nM	0.823	89.4 nM	0.977	> 32000 nM	0.681	618 nM	0.714	1630 nM
SU-DHL-6 (B-cell lymphoma, suspension)	0.993	> 30000 nM	0.845	4620 nM	0.157	10.3 nM	0.827	8250 nM	0.17	0.928 nM	0.985	> 32000 nM	0.726	572 nM	0.539	398 nM
A4-Fuk (B-cell lymphoma, suspension)	0.887	> 30000 nM	0.782	4370 nM	0.288	18.4 nM	0.982	> 20000 nM	0.573	10 nM	0.723	8870 nM	0.729	741 nM	0.821	3130 nM
EW-18 (Ewing sarcoma, suspension)	0.978	> 30000 nM	0.976	> 10000 nM	0.981	> 1200 nM	0.808	11300 nM	0.925	> 100 nM	0.906	> 32000 nM	0.985	> 2560 nM	0.538	410 nM
DU-4475 (breast, suspension)	0.984	> 30000 nM	0.244	136 nM	0.548	99 nM	0.917	> 20000 nM	0.838	50.5 nM	0.874	21500 nM	0.779	849 nM	0.612	612 nM
JiyoyeP-2003 (Burkitt lymphoma, suspension)	0.97	> 30000 nM	0.93	> 10000 nM	0.571	115 nM	0.857	13200 nM	0.516	6.88 nM	0.722	7760 nM	0.768	849 nM	0.753	1530 nM
QIMR-WIL (acute myeloid leukaemia, suspension)	0.869	26200 nM	0.889	> 10000 nM	0.555	106 nM	0.791	8690 nM	0.452	4.65 nM	0.568	3050 nM	0.766	915 nM	0.518	359 nM
KMOE-2 (acute myeloid leukaemia, suspension)	0.981	> 30000 nM	0.212	101 nM	0.715	280 nM	0.797	8290 nM	0.978	> 100 nM	0.933	> 32000 nM	0.827	1340 nM	0.699	1080 nM
JM1 (B-cell lymphoma, suspension)	0.982	> 30000 nM	0.962	> 10000 nM	0.708	262 nM	0.79	7580 nM	0.915	> 100 nM	0.563	2890 nM	0.749	731 nM	0.613	622 nM

Cell Line	AUC (Temozolomide)	IC50 (Temozolomide)	AUC (CI-1040)	IC50 (CI-1040)	AUC (JW-7-52-1)	IC50 (JW-7-52-1)	AUC (Tubastatin A)	IC50 (Tubastatin A)	AUC (Rapamycin)	IC50 (Rapamycin)	AUC (IPA-3)	IC50 (IPA-3)	AUC (Z-LLNle-CHO)	IC50 (Z-LLNle-CHO)	AUC (XL-880)	IC50 (XL-880)
MRK-nu-1 (breast, suspension)	0.983	> 30000 nM	0.972	> 10000 nM	0.16	7.7 nM	0.914	> 20000 nM	0.083	< 0.391 nM	0.933	> 32000 nM	0.806	1170 nM	0.866	3950 nM
NCI-H1417 (small cell lung carcinoma, suspension)	0.958	> 30000 nM	0.677	2160 nM	0.763	511 nM	0.855	> 20000 nM	0.945	> 100 nM	0.967	> 32000 nM	0.93	> 2560 nM	0.746	1890 nM
NCI-H2135 (non-small cell lung carcinoma, adherent)	0.989	> 30000 nM	0.991	> 10000 nM	0.679	233 nM	0.901	> 20000 nM	0.981	> 100 nM	0.795	14400 nM	0.89	> 2560 nM	0.674	961 nM
HCC1187 (breast, suspension)	0.96	> 30000 nM	0.937	> 10000 nM	0.769	431 nM	0.977	> 20000 nM	0.86	77.5 nM	0.922	> 32000 nM	0.756	836 nM	0.645	789 nM
DEL (lymphoid neoplasm, suspension)	0.802	11300 nM	0.986	> 10000 nM	0.337	29.5 nM	0.932	> 20000 nM	0.558	8.67 nM	0.766	9480 nM	0.744	663 nM	0.734	1240 nM
DMS-79 (small cell lung carcinoma, suspension)	0.984	> 30000 nM	0.983	> 10000 nM	0.85	1150 nM	0.983	> 20000 nM	0.916	> 100 nM	0.987	> 32000 nM	0.931	> 2560 nM	0.816	3430 nM
SU-DHL-4 (B-cell lymphoma, suspension)	0.996	> 30000 nM	0.997	> 10000 nM	0.159	10.9 nM	0.947	18900 nM	0.114	0.678 nM	0.633	4200 nM	0.804	885 nM	0.599	553 nM
KY821 (leukaemia, suspension)	0.982	> 30000 nM	0.759	3080 nM	0.674	214 nM	0.967	> 20000 nM	0.989	> 100 nM	0.93	> 32000 nM	0.793	1000 nM	0.786	1900 nM
DSH1 (bladder, adherent)	0.988	> 30000 nM	0.946	> 10000 nM	0.511	80.2 nM	0.909	> 20000 nM	0.904	> 100 nM	0.983	> 32000 nM	0.656	423 nM	0.879	4860 nM
MHH-PREB-1 (B-cell leukaemia, suspension)	0.972	> 30000 nM	0.988	> 10000 nM	0.296	21.5 nM	0.83	10800 nM	0.682	18.9 nM	0.582	3270 nM	0.877	2120 nM	0.524	370 nM
ME-1 (acute myeloid leukaemia, suspension)	0.984	> 30000 nM	0.611	1290 nM	0.817	731 nM	0.764	7790 nM	0.936	> 100 nM	0.966	> 32000 nM	0.817	1560 nM	0.86	4800 nM
CESS (acute myeloid leukaemia, suspension)	0.963	> 30000 nM	0.908	> 10000 nM	0.367	34.1 nM	0.811	8790 nM	0.595	10.9 nM	0.719	7500 nM	0.703	541 nM	0.604	591 nM
MEG-01 (chronic myeloid leukaemia, suspension)	0.987	> 30000 nM	0.68	1920 nM	0.666	211 nM	0.926	> 20000 nM	0.858	74.4 nM	0.936	> 32000 nM	0.78	991 nM	0.239	59.5 nM
ML-2 (acute myeloid leukaemia, suspension)	0.979	> 30000 nM	0.579	1000 nM	0.565	111 nM	0.791	7920 nM	0.923	> 100 nM	0.849	20100 nM	0.679	474 nM	0.609	614 nM
EB2 (Burkitt lymphoma, suspension)	0.989	> 30000 nM	0.969	> 10000 nM	0.954	> 1200 nM	0.886	18400 nM	0.965	> 100 nM	0.627	4320 nM	0.938	> 2560 nM	0.597	574 nM
